Measured values as given in US20240166748A1.

Tests used:
canine FcRn [1] = target: T1, canine FcRn (UniProtKB-E2R0L6 [FcRn] and UniProtKB-E2RN10 [canine beta-2-microglobulin]) (canine); assay: SPR Biacore 8K, pH 5.5, Fc captured via SASA tag on BSA, canine FcRn 400 nM
canine FcRn [2] = target: T1, canine FcRn; assay: SPR Biacore 8K, pH 5.5, Fc captured via SASA tag on BSA, canine FcRn 200 nM

| Molecule | kon (canine FcRn [1]) | koff (canine FcRn [1]) | also measured |
| --- | --- | --- | --- |
| canine IgG.B Fc variant H433A (SASA-tagged CH2-CH3) (Fc fusion) | 862000 M⁻¹ s⁻¹ and 278000 M⁻¹ s⁻¹ [lines of one column] | – | – |
| canine IgG.B Fc variant N434W (SASA-tagged CH2-CH3) (Fc fusion) | – | – | koff (canine FcRn [2]): 0.028 s⁻¹ and 0.318 s⁻¹ [lines of one column]; kon (canine FcRn [2]): 693000 M⁻¹ s⁻¹ and 4.2e+06 M⁻¹ s⁻¹ [lines of one column] |
| canine IgG.B Fc variant G309A (SASA-tagged CH2-CH3) (Fc fusion) | 1.4e+06 M⁻¹ s⁻¹ and 244000 M⁻¹ s⁻¹ [lines of one column] | 0.348 s⁻¹ and 0.0719 s⁻¹ [lines of one column] | – |
| canine IgG.B Fc variant Y436A (SASA-tagged CH2-CH3) (Fc fusion) | 1e+06 M⁻¹ s⁻¹ and 244000 M⁻¹ s⁻¹ [lines of one column] | – | – |
| canine IgG.B Fc variant A254S (SASA-tagged CH2-CH3) (Fc fusion) | 7.9e+06 M⁻¹ s⁻¹ and 2.4e+06 M⁻¹ s⁻¹ [lines of one column] | 2.69 s⁻¹ and 0.758 s⁻¹ [lines of one column] | – |
| canine IgG.B Fc variant T250A (SASA-tagged CH2-CH3) (Fc fusion) | 1.9e+07 M⁻¹ s⁻¹ and 3.9e+06 M⁻¹ s⁻¹ [lines of one column] | – | – |
| canine IgG.B Fc variant T256A (SASA-tagged CH2-CH3) (Fc fusion) | 371000 M⁻¹ s⁻¹ and 2.4e+08 M⁻¹ s⁻¹ [lines of one column] | 0.166 s⁻¹ and 72.4 s⁻¹ [lines of one column] | – |
| canine IgG.B Fc variant M428A (SASA-tagged CH2-CH3) (Fc fusion) | – | 0.169 s⁻¹ and 0.532 s⁻¹ [lines of one column] | – |
| canine IgG.B Fc variant G309P (SASA-tagged CH2-CH3) (Fc fusion) | – | – | Kd (canine FcRn [2]): 635, 434, 637, 718 nM [lines of one column]; koff (canine FcRn [2]): 0.239, 0.242, 0.132, 0.145 s⁻¹ [lines of one column]; kon (canine FcRn [2]): 377000, 558000, 207000, 202000 M⁻¹ s⁻¹ [lines of one column] |
| canine IgG.B Fc variant L252A (SASA-tagged CH2-CH3) (Fc fusion) | 332000 M⁻¹ s⁻¹ and 2.4e+06 M⁻¹ s⁻¹ [lines of one column] | 0.0969 s⁻¹ and 0.567 s⁻¹ [lines of one column] | – |
| canine IgG.B Fc variant Q285A (SASA-tagged CH2-CH3) (Fc fusion) | 328000 M⁻¹ s⁻¹ and 1.4e+08 M⁻¹ s⁻¹ [lines of one column] | 0.112 s⁻¹ and 35.2 s⁻¹ [lines of one column] | – |
| canine IgG.B Fc variant P307A (SASA-tagged CH2-CH3) (Fc fusion) | 2.9e+08 M⁻¹ s⁻¹ and 3.7e+06 M⁻¹ s⁻¹ [lines of one column] | 93.1 s⁻¹ and 1.23 s⁻¹ [lines of one column] | – |
| canine IgG.B Fc variant K315A (SASA-tagged CH2-CH3) (Fc fusion) | 4.1e+07 M⁻¹ s⁻¹ and 245000 M⁻¹ s⁻¹ [lines of one column] | 17.4 s⁻¹ and 0.134 s⁻¹ [lines of one column] | – |
| wild-type canine IgG.B Fc (SASA-tagged CH2-CH3) (Fc fusion, part only; not given: serum albumin single-domain tag, part only) chain, part: APEMLGGPSVFIFPPKPKDTLLIARTPEVTCVVVDLDPEDPEVQISWFVDGKQMQTAKTQPREEQFNGTYRVVSVLPIGHQDWLKGKQFTCKVNNKALPSPIERTISKARGQAHQPSVYVLPPSREELSKNTVSLTCLIKDFFPPDIDVEWQSNGQQEPESKYRTTPPQLDEDGSYFLYSKLSVDKSRWQRGDTFICAVMHEALHNHYTQESLSHSPGK | 3.6e+06 M⁻¹ s⁻¹, 632000 M⁻¹ s⁻¹, 442000 M⁻¹ s⁻¹, 587000 M⁻¹ s⁻¹, 386000 M⁻¹ s⁻¹, 391000 M⁻¹ s⁻¹, 265000 M⁻¹ s⁻¹, 310000 M⁻¹ s⁻¹, 269000 M⁻¹ s⁻¹, 780000 M⁻¹ s⁻¹, 290000 M⁻¹ s⁻¹, 173000 M⁻¹ s⁻¹ [lines of one column] | 1.16, 0.375, 0.185, 0.314, 0.188, 0.201, 0.16, 0.152, 0.166, 0.479, 0.135, 0.196 s⁻¹ [lines of one column] | Kd (canine FcRn [1]): 321 nM, 592 nM, 418 nM, 534 nM, 488 nM, 514 nM, 606 nM, 489 nM, 616 nM, 614 nM, 465 nM, 1.13 µM [lines of one column]; WT KD Avg/Variant KD (canine FcRn [1]): 1.76, 0.96, 1.35, 1.06, 1.16, 1.1, 0.93, 0.92, 1.22, 0.5 [lines of one column] |

A number of entries come with more than one value. This list holds those alone. The source may hold further records. For part of these data: The records of an entry seem to repeat one measurement on other runs, samples or individuals. For part of these data: Values that stand side by side read as repeated measurements on other runs, samples or individuals; one of them may be the mean.
